{
  "source": "PubChem BioAssay AID686979",
  "about": "(National Center for Advancing Translational Sciences (NCATS), 2013)",
  "note": "About 50,000 (12%) of roughly 420,000 compounds were called active. The shares of active, inactive and inconclusive entries below differ from those in the screen. The call rests on the fitted dose curve; in most records, active means well fitted inhibition curve with a large enough effect; inconclusive means small, poorly fitted or top-dose-only effect; inactive means flat fitted curve, though single readings scatter. Potencies of inconclusive entries are left out as doubtful fits. On the % scale 0 is the no-effect control and ±100 the full control effect; potency means the concentration at half of the fitted maximal effect; tags describe the fitted curve by direction and shape.",
  "data": [
    {"assay": "qHTS for Inhibitors of human tyrosyl-DNA phosphodiesterase 1 (TDP1): qHTS in cells in presence of CPT; further: nearly all actives have a fitted effect of over 55% in size", "details": "chicken DT40 Tdp1-/-;hTDP1 cells + 20 nM CPT, ATP luminescence, 48 h; activity change, negative = growth inhibition: at 46.2 µM (top of the series)", "in_short": "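Chicken DT40 Tdp1-/- cells stably complemented with human TDP1 were seeded at 400 cells/well in medium containing 20 nM camptothecin, exposed to pin-transferred compounds, and grown at 37 °C for at least 48 hr. Viability was read as ATP luminescence.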", "values": [
      {"smiles": "CCCCC(CC)CNC(=O)C1CCC(CNS(=O)(=O)c2cccc3nsnc23)CC1", "note": "(stereo not given)", "Potency": "inconclusive [inhibitor, single point]"},
      {"smiles": "Cc1cc(C)cc(OCCCn2c(CCNC(=O)C3CCCCC3)nc3ccccc32)c1", "Potency": "active: 11.6 µM"},
      {"smiles": "CC(C)CC(=O)NC(=S)Nc1ccccc1C(F)(F)F", "Potency": "inconclusive [inhibitor, single point]"},
      {"smiles": "CC1Sc2ccc(C#N)cc2N(Cc2cccc(C(F)(F)F)c2)C1=O", "note": "(stereo not given)", "Potency": "inconclusive [inhibitor, partial curve, poor fit]"},
      {"smiles": "Nc1cc(=O)[nH]c(SCCSc2ccccc2)n1", "Potency": "inconclusive [inhibitor, partial curve, poor fit]"},
      {"smiles": "O=C(CC1C(=O)OCCN1Cc1ccccc1)Nc1ccc(F)cc1", "note": "(stereo not given)", "Potency": "inconclusive [inhibitor, single point]"},
      {"smiles": "CCOc1ccc(NC(=O)CN(C)C(=O)c2ccccc2SCC(=O)N2CCCC2)cc1OCC", "activity change, negative = growth inhibition": "inactive: -2.64%"},
      {"smiles": "Cc1ccc(CN(C)c2nc(-c3cccnc3)nc3ccccc23)o1", "Potency": "inconclusive [inhibitor, single point]"},
      {"smiles": "COc1ccc(OC)c(C(=O)NC2CCCc3c2cnn3-c2cc(C)cc(C)c2)c1", "note": "(stereo not given)", "Potency": "active: 29.1 µM"},
      {"smiles": "Cc1ccc(Sc2sc(=O)n(C)c2S(=O)(=O)c2ccc(C)cc2)cc1", "Potency": "inconclusive [inhibitor, single point]"},
      {"smiles": "COc1ccccc1N1CCN(C(=O)CSc2nc3ccccc3nc2N2CCC(C)CC2)CC1", "Potency": "active: 20.6 µM"},
      {"smiles": "COc1ccc(N2C(=O)C3NN=C(C(=O)OCc4ccccc4)C3C2=O)cc1", "note": "(stereo not given)", "activity change, negative = growth inhibition": "inactive: 1.49%"},
      {"smiles": "CCc1nc(Nc2ccc3nccnc3c2)c2oc3ccccc3c2n1", "Potency": "inconclusive [inhibitor, full curve]"},
      {"smiles": "O=S(=O)(c1ccc(-c2cn3ccccc3n2)cc1)N1CCOCC1", "Potency": "inconclusive [inhibitor, single point]"},
      {"smiles": "COC(=O)c1sc2nc(C)nc(SCC(=O)Nc3sccc3C(N)=O)c2c1C", "Potency": "active: 18.4 µM"},
      {"smiles": "CC(C)OCCCNC(=O)CN1C(=O)/C(=C/c2ccccc2F)Oc2ccccc21", "Potency": "inconclusive [inhibitor, single point]"},
      {"smiles": "COc1cc(NC(=O)CSc2nc(-c3ccc(C)cc3)nc3c2Cc2ccccc2O3)cc(OC)c1", "Potency": "inconclusive [inhibitor, partial curve]"},
      {"smiles": "COc1ccccc1NC(=O)N1CCc2[nH]c3ccc(Cl)cc3c2C1", "Potency": "active: 20.6 µM"},
      {"smiles": "CC(C)(C)CC(C)(C)NCC(O)COCCOc1ccc(Br)cc1", "note": "(stereo not given)", "Potency": "active: 5.17 µM"},
      {"smiles": "Cc1ccc(C(=O)Oc2ccccc2N2C(=O)C3C4CCC(C4)C3C2=O)cc1", "note": "(stereo not given)", "activity change, negative = growth inhibition": "inactive: -8.68%"},
      {"smiles": "Cc1ccc(-n2c(O)c(C=Nc3ccc4c(c3)OCO4)c3ccccc3c2=O)cc1C", "Potency": "active: 7.31 µM"},
      {"smiles": "COc1ccc(C2N=C(c3ccccc3)C(C)(C)N2O)cc1", "note": "(stereo not given)", "Potency": "inconclusive [inhibitor, partial curve]"},
      {"smiles": "N#Cc1ccc(CSc2nc3c(c(=O)[nH]2)CCC3)cc1", "activity change, negative = growth inhibition": "inactive: -0.519%"},
      {"smiles": "O=C(Cc1cccc2ccccc12)N/N=C/C=C/c1cccc([N+](=O)[O-])c1", "Potency": "inconclusive [inhibitor, single point]"},
      {"smiles": "Cc1cccc(C)c1-n1ncc(C(=O)N2CCN(c3ccccn3)CC2)c1C1CCN(C(=O)OC(C)(C)C)CC1", "Potency": "inconclusive [inhibitor, single point]"},
      {"smiles": "COCOCCn1cc(CN2CCS(=O)(=O)N(Cc3ccc(-c4ccc(Cl)c(Cl)c4)cc3)C(C(C)C)C2=O)nn1", "note": "(stereo not given)", "Potency": "active: 2.31 µM"},
      {"smiles": "COC(=O)c1sc(NC(=O)CC(C)C)c(C(=O)OC)c1C", "activity change, negative = growth inhibition": "inactive: -19.5%"},
      {"smiles": "OCCn1c(-c2ccccc2)csc1=Nc1ccccc1", "Potency": "active: 25.9 µM"},
      {"smiles": "CCOC(=O)N/N=C\\c1ccc(-c2cc(Cl)ccc2Cl)o1", "Potency": "inconclusive [inhibitor, single point]"},
      {"smiles": "COc1ccc(CNCc2cccc(OC)c2OC)cc1Br", "Potency": "inconclusive [inhibitor, single point]"},
      {"smiles": "CC(C)(C)[C@H]1COC(=O)[C@@H](Cc2ccc(F)cc2)C/C=C\\C[C@@H](CC(=O)N[C@H](CO)Cc2ccccc2)C(=O)N1", "Potency": "inconclusive [inhibitor, single point]"},
      {"smiles": "COc1ccc(OC)c(NC(=O)Cn2cc(C=O)c3ccccc32)c1", "Potency": "inconclusive [inhibitor, partial curve]"},
      {"smiles": "Cc1ccccc1Cn1cnc2ccccc21", "Potency": "active: 18.4 µM"},
      {"smiles": "CN(C(=O)COc1ncnc2ccccc12)C1CCCCC1", "activity change, negative = growth inhibition": "inactive: -3.99%"},
      {"smiles": "O=C(O)c1cc(-c2cccnc2)nc2ccc(Br)cc12", "Potency": "inconclusive [inhibitor, single point]"},
      {"smiles": "COc1cc(S(=O)(=O)N2CCN(Cc3ccccc3)CC2)ccc1Br", "Potency": "inconclusive [inhibitor, single point]"},
      {"smiles": "CC(=O)c1c(C(C)=O)c(C)n(-c2ccc(C)c(NC(=O)c3ccccc3Cl)c2)c1C", "Potency": "inconclusive [inhibitor, single point]"},
      {"smiles": "CCCNC(=O)c1cccc(S(=O)(=O)N2CC3(C)CC2CC(C)(C)C3)c1", "note": "(stereo not given)", "Potency": "inconclusive [inhibitor, single point]"},
      {"smiles": "Cc1ccc(CN2CCCN(Cc3cc(C)ccc3C)S2(=O)=O)cc1", "activity change, negative = growth inhibition": "inactive: -12%"},
      {"smiles": "Cc1cccc(-c2nc3c4ccccc4nc(NCc4ccc(Cl)cc4)n3n2)c1", "activity change, negative = growth inhibition": "inactive: 19.7%"},
      {"smiles": "Cc1ccc2cc(CN(Cc3ccco3)C(=O)NC3CCCCC3)c(=O)[nH]c2c1C", "Potency": "active: 16.4 µM"},
      {"smiles": "CCOc1ccccc1N1CC(C(=O)Nc2cccc(S(=O)(=O)N3CCCCC3)c2)CC1=O", "note": "(stereo not given)", "Potency": "inconclusive [inhibitor, single point]"},
      {"smiles": "CC(C)(C)c1ccccc1NC(=O)NC1CCN(Cc2c(F)cccc2Cl)CC1", "activity change, negative = growth inhibition": "inactive: 6.81%"},
      {"smiles": "COc1cc(/C=N/NC(N)=O)c(Br)cc1OCC(=O)Nc1ccccc1C", "Potency": "inconclusive [inhibitor, single point]"},
      {"smiles": "CCOc1ccc(Br)cc1S(=O)(=O)NC1=NCCCCC1", "activity change, negative = growth inhibition": "inactive: 19.7%"},
      {"smiles": "CCN1C(=O)[C@H]2[C@@H](c3ccc(-c4cc(C(C)=O)cs4)cc3)N3CCC[C@@]3(C(=O)OC)[C@H]2C1=O", "Potency": "inconclusive [inhibitor, single point]"},
      {"smiles": "CC(=O)c1ccc(NC(=O)CSc2cn(CC(=O)N3CCCCCC3)c3ccccc23)cc1", "Potency": "inconclusive [inhibitor, single point]"},
      {"smiles": "Cc1sc2nc(CSC(C)C(=O)Nc3cc(S(C)(=O)=O)ccc3Cl)[nH]c(=O)c2c1C", "note": "(stereo not given)", "activity change, negative = growth inhibition": "inactive: -2.51%"},
      {"smiles": "CCCCCCCCN1C(=O)[C@H](CC(=O)NCCc2ccccc2OC)C[C@@]2(C(=O)OC)CC(C)(C)CC=C12", "Potency": "active: 20.6 µM"},
      {"smiles": "COc1ccccc1NC(=O)COC(=O)c1cc(C)nc2ccccc12", "activity change, negative = growth inhibition": "inactive: -22.2%"},
      {"smiles": "Cc1c(CCC(C)C)c(-n2ccnc2C)n2c(nc3ccccc32)c1C#N", "Potency": "inconclusive [inhibitor, partial curve]"},
      {"smiles": "CN(C(=O)CSc1ccc2c(c1)OCCO2)c1ccccc1", "Potency": "inconclusive [inhibitor, single point]"},
      {"smiles": "CCCCN(C)C(=O)c1sc(=O)n(Cc2cc(Cl)ccc2OC)c1C", "Potency": "inconclusive [inhibitor, single point]"},
      {"smiles": "C[C@H]1CN([C@@H](C)CO)C(=O)c2cccc(NC(=O)C3CC3)c2O[C@H]1CN(C)S(=O)(=O)c1cccs1", "activity change, negative = growth inhibition": "inactive: -15.4%"},
      {"smiles": "O=C(NCc1nc2ccccc2[nH]1)C1=C[C@H](c2ccc3c(c2)OCO3)C[C@H](OCc2ccc(CO)cc2)O1", "Potency": "inconclusive [inhibitor, single point]"},
      {"smiles": "COc1ccc(NC(=O)CSc2oc(-c3ccco3)nc2S(=O)(=O)c2ccc(Br)cc2)c(OC)c1", "Potency": "inconclusive [inhibitor, single point]"},
      {"smiles": "COc1ccc(-c2oc3ccc(-c4cc(OC)c(OC)c(OC)c4)cc3c2C(=O)c2ccc(OC)nc2)cc1", "Potency": "inconclusive [inhibitor, single point]"},
      {"smiles": "C=CCN(CC=C)CCOc1ccc2ccccc2c1", "activity change, negative = growth inhibition": "inactive: 2.93%"},
      {"smiles": "O=c1c2ccc(Cl)cc2[nH]c(=S)n1CCCN1CCOCC1", "Potency": "inconclusive [inhibitor, single point]"},
      {"smiles": "O=C(C1=C[C@H](c2ccc3c(c2)OCO3)C[C@H](OCCCCO)O1)N1CCN(Cc2ccccc2)CC1", "Potency": "inconclusive [inhibitor, single point]"},
      {"smiles": "COc1cccc(Cn2cccc(NC(=O)Nc3ccc(C#N)cc3)c2=O)c1", "Potency": "active: 18.4 µM"},
      {"smiles": "CC1=CC(C)(C)NC(=S)N1c1cccc(Cl)c1", "Potency": "inconclusive [inhibitor, single point]"},
      {"smiles": "COc1ccccc1C1CC(c2ccc(Br)cc2)=NN1C(=O)c1cccnc1", "note": "(stereo not given)", "Potency": "active: 16.4 µM"},
      {"smiles": "C=CCN1C(=O)/C(=C/N(C)C)S/C1=N\\S(=O)(=O)c1cccs1", "activity change, negative = growth inhibition": "inactive: -15.5%"},
      {"smiles": "CCCc1cc(=O)[nH]c(Nc2ccc(O)cc2)n1", "activity change, negative = growth inhibition": "inactive: -29.7%"},
      {"smiles": "CCOC(=O)N1CCN(C(=O)CN(C2CCCCC2)S(=O)(=O)c2ccc(C)cc2)CC1", "Potency": "inconclusive [inhibitor, full curve, poor fit]"},
      {"smiles": "O=c1[nH]c(C2CCN(S(=O)(=O)c3ccccc3)CC2)nc2c1nnn2Cc1ccc2c(c1)OCCO2", "Potency": "inconclusive [inhibitor, single point]"},
      {"smiles": "CC(C)Cn1c(=O)c2sccc2n2c(CCCC(=O)NCc3ccccc3Cl)nnc12", "activity change, negative = growth inhibition": "inactive: -10.8%"},
      {"smiles": "COc1ccccc1C(=O)Nn1c(C)nc2ccccc2c1=O", "Potency": "active: 10.3 µM"},
      {"smiles": "CN(C(=O)c1ccc(NC(=O)Cc2ccc(NC(=O)C3CCCN(C(=O)CCc4ccccc4)C3)cc2)cc1)C1CC1", "note": "(stereo not given)", "Potency": "inconclusive [inhibitor, partial curve, poor fit]"}
    ]}
  ]
}
